Experimental data from PubChem BioAssay AID686979 (National Center for Advancing Translational Sciences (NCATS), 2013).
Screen size: about 420,000 compounds; about 50,000 (12%) were called active. Inconclusive results, whose numbers are uncertain, are shown with a selection of clear calls. Calls follow the shape of the dose curve; as a rule, active = well fitted inhibition curve with a large enough effect; inconclusive = small, poorly fitted or top-dose-only effect; inactive = flat fitted curve, though single readings scatter. No potency is given beside an inconclusive call; the fits are too rough.
% is scaled to controls: 0 for no effect and ±100 for the full control effect; potency is read from the fitted curve at half-maximal effect; tags tell the direction and shape of the fitted curve.

Experiment: qHTS for Inhibitors of human tyrosyl-DNA phosphodiesterase 1 (TDP1): qHTS in cells in presence of CPT; also: nearly all actives have a fitted effect of over 55% in size
Conditions: chicken DT40 Tdp1-/-;hTDP1 cells + 20 nM CPT, ATP luminescence, 48 h; activity change, negative = growth inhibition: at 46.2 µM (top of the series) unless noted
Summary of the method: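 Cell growth measured by CellTiter-Glo luminescence after a minimum 48 h, 37 C compound exposure with 20 nM CPT in Tdp1-knockout DT40 cells stably expressing hTDP1, seeded 400/well; qHTS titration format.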
For CC(C)c1cc(C(=O)OCC(=O)NC2CCS(=O)(=O)C2)c(O)c(C(C)C)c1 (centres undefined), the activity change, negative = growth inhibition was inconclusive: -31.4% [inhibitor].
For O=C(NCc1ccc(F)cc1F)[C@@H]1CCCN1C(=O)[C@@H]1CCCN1C(=O)c1cccs1, the Potency was inconclusive [inhibitor, single point].
In the case of COc1cccc(-c2nn(C)c3sc(C(=O)NCc4ccc(OC)cc4OC)cc23)c1, the Potency was inconclusive [inhibitor, single point].
For O=C(Nc1ccc2snnc2c1)Nc1cccc2ccccc12, the Potency was active: 23.1 µM.
In the case of Nc1c(C(=O)OCC2CCCO2)c2nc3ccccc3nc2n1C1CCCC1 (centres undefined), the Potency was inconclusive [inhibitor, single point].
With COc1ccc(CC(=O)NCC(c2cccs2)S(=O)(=O)c2ccc(F)cc2)cc1 (centres undefined) the Potency was inconclusive [inhibitor, single point].
For Cc1ccc(CNC(=O)c2c(Nc3ccccc3C)sc(C(=O)c3ccc(F)cc3)c2N)cc1, the Potency was inconclusive [inhibitor, single point].
For COc1ccccc1C(=O)Nc1ccc2c(c1)CN(C(=O)CSC)CC2, the Potency was inconclusive [inhibitor, partial curve].
For CCCC1CCc2[nH]nc(C(=O)NN)c2C1 (centres undefined), the Potency was inconclusive [inhibitor, single point].
In the case of CC(C)c1cc(-c2nc(-c3ccc(Cl)cc3)no2)n[nH]1, the Potency was active: 20.6 µM.
In the case of CCc1cnc2c(c1SC(C(C)=O)C(=O)N(C)C)c(=O)n(C)c(=O)n2C (centres undefined), the Potency was active: 23.1 µM.
For CN1C(=O)C(CC(=O)NC2CCCCC2)N(C)C1=O (centres undefined), the Potency was “inactive”.
In the case of O=C(Cn1cnc2c(nnn2Cc2ccccc2)c1=O)N1CCN(c2ccccc2)CC1, the Potency was inconclusive [inhibitor, partial curve].
In the case of COc1ccc(CC(=O)OC(C)C(=O)Nc2c(C)n(C)n(-c3ccccc3)c2=O)cc1OC (centres undefined), the Potency was “inactive”.
In the case of COc1ccc(CCNC(=O)c2ccc(Cn3c(SCc4ccccc4)nc4cccnc43)cc2)cc1, the Potency was inconclusive [inhibitor, single point].
In the case of O=C(NCc1ccco1)c1cc2cc(Br)ccc2o1, the Potency was inconclusive [inhibitor, single point].
For CC1CCN(S(=O)(=O)c2ccc3c(c2)N(CC(=O)NCCCOC(C)C)C(=O)CS3)CC1, the Potency was “inactive”.
For CNc1ncnc2c1ncn2[C@H]1C[C@H](O)[C@@H](CO)O1, the Potency was inconclusive [inhibitor, single point].
With CCOc1ccccc1NC(=O)C1=C(C)Nc2ncnn2C1c1ccco1 (centres undefined) the Potency was “inactive”.
In the case of COc1ccc(Cc2nc3ccc(C(=O)N4CCCCC4CCO)cc3o2)cc1 (centres undefined), the Potency was inconclusive [inhibitor, single point].
With COc1cc(NC(=O)c2nn(C)c3c2COc2ccccc2-3)cc(OC)c1OC the Potency was active: 4.61 µM.
In the case of N#Cc1cccc(NC(=O)Nc2cccs2)c1, the Potency was inconclusive [inhibitor, single point].
For CC(C)(C)c1cc[n+](C2=C([O-])c3ccccc3C(=O)/C2=N\S(=O)(=O)c2cccs2)cc1, the Potency was active: 2.31 µM.
In the case of O=C(Cc1cccc(NC(=O)C2CCCN(C(=O)CCc3ccccc3)C2)c1)Nc1cccc(C(=O)N2CCCC2)c1 (centres undefined), the Potency was active: 18.4 µM.
In the case of C=CCOc1cccc(/C=C2\C(=O)N(Cc3ccc(C)cc3)C(C)=C2C(=O)OC)c1, the Potency was inconclusive [inhibitor, single point].
In the case of CCCn1c(=N)n(CCOc2ccc(OC)cc2)c2ccccc21, the Potency was active: 16.4 µM.
In the case of Cc1ccc(CNC(=O)c2c(Nc3c(C)cccc3C)sc(C(=O)c3ccccc3)c2N)cc1, the Potency was active: 8.2 µM.
For C[C@@H](NC(=O)Cn1ccc(N)nc1=O)c1cccc2ccccc12, the Potency was inconclusive [inhibitor, single point].
With COc1ccccc1C(=O)Nc1ccc(C(=O)OCc2cc(=O)n3c4c(sc3n2)CCCC4)cc1 the Potency was inconclusive [inhibitor, single point].
For CC(C)c1ccc(NC(=O)c2ccc(CN3CC(=O)N4CCCCC4C3=O)cc2)cc1 (centres undefined), the Potency was inconclusive [inhibitor, single point].
In the case of COC(=O)[C@@]12C[C@@H](CC(=O)NCC34CC5CC(CC(C5)C3)C4)C(=O)N(CCc3ccc(OC)c(OC)c3)C1=CCC(C)(C)C2, the Potency was active: 16.4 µM.
With Cn1c(=O)c2nnn(/N=C(\c3ccccc3)C3CC3)c2n(C)c1=O the Potency was inconclusive [inhibitor, single point].
For O=C(N/N=C/c1ccccc1Cl)c1[nH]c2ccc(Br)cc2c1-c1ccccc1, the Potency was active: 1.3 µM.
For Cc1cccc(NC(=O)Cn2c(=O)n(Cc3ccccc3)c(=O)c3oc4ccccc4c32)c1C, the Potency was active: 4.61 µM.
In the case of CCOc1ccc(OCc2ccc(C(=O)N3CCCCC3)o2)cc1, the Potency was inconclusive [inhibitor, single point].
With O=S(=O)(NCCCN1CCN(c2ccccc2F)CC1)c1cccc2cccnc12 the Potency was inconclusive [inhibitor, single point].
With CC(C)CCC(C)NC(=O)CN1C(=O)NC(C)(c2ccc3ccccc3c2)C1=O (centres undefined) the Potency was inconclusive [inhibitor, single point].
For O=C1c2cccc(OCC(=O)N3N=C(c4cccs4)CC3c3ccc(F)cc3)c2CCN1Cc1cccnc1 (centres undefined), the Potency was active: 9.2 µM.
For CC1=C(C(=O)OC2CCCCC2)C(c2cccc([N+](=O)[O-])c2)NC(=O)N1 (centres undefined), the Potency was inconclusive [inhibitor, single point].
For CCCc1cc(=O)[nH]c(SCC(=O)N2CCN(S(=O)(=O)c3ccc(C)cc3)C2)n1, the Potency was “inactive”.
With CO[C@@H]1CN(C)C(=O)c2ccc(NC(=O)C3CCCC3)cc2OC[C@@H](C)N(Cc2ccc(F)cc2)C[C@H]1C the Potency was inconclusive [inhibitor, single point].
In the case of COc1ccccc1N(C)S(=O)(=O)c1ccc(C(=O)NCc2ccccc2CN2CCCC2)cc1, the Potency was inconclusive [inhibitor, single point].
In the case of CC(=O)c1cccc(NC(=O)Cc2ccc3c(c2)CCCC3)c1, the Potency was inconclusive [inhibitor, single point].
For c1coc(-c2ccccc2CN2CCOc3ccc(CN4CCOCC4)cc3C2)c1, the Potency was inconclusive [inhibitor, single point].
With O=C(NC1CCCCC1)C(c1ccnc2ccccc12)n1c(=O)c(-c2ccccc2)nc2ccccc21 (centres undefined) the Potency was active: 10.3 µM.
In the case of CCOC(=O)N1CCC(N2Cc3cccc(C(=O)NCc4ccc(C)cc4)c3C2=O)CC1, the Potency was inconclusive [inhibitor, single point].
In the case of COc1ccc(CCNC(=O)c2ccc(CNS(=O)(=O)c3cccc(Cl)c3)cc2)cc1OC, the Potency was inconclusive [inhibitor, single point].
With N/C(=N\OC(=O)N1c2ccccc2Sc2ccccc21)c1ccc(Br)cc1 the Potency was active: 20.6 µM.
For COc1c(Cl)cc(C(=O)NN)cc1Cl, the Potency was “inactive”.
In the case of CN(C)c1ccc(CNC(=O)c2ccc3nc(Cc4ccccc4)oc3c2)cc1, the Potency was inconclusive [inhibitor, single point].
With COc1cccc(/C=C/C(=O)Oc2ccc(C(=O)c3ccc(F)cc3)cc2)c1 the Potency was inconclusive [inhibitor, single point].
In the case of Cc1ccsc1C(=O)NNC(=O)CCN1CCN(c2ccccc2)CC1, the Potency was “inactive”.
With CC(=O)c1ccc(-c2c(CCO)sc3ccccc23)cc1 the Potency was inconclusive [inhibitor, single point].
With CC(=O)n1cc(N(C(=O)CCl)c2ccc(C)cc2)c2ccccc21 the Potency was active: 3.26 µM.
In the case of CCc1nnc(NC(=O)Cc2ccc(S(=O)(=O)N3CCCCC3)cc2)s1, the Potency was “inactive”.
In the case of Cc1cc(C)c(NC(=O)C(=O)NCCc2csc(-c3ccc(F)cc3)n2)c(C)c1, the Potency was active: 18.4 µM.
In the case of CCN(CC(=O)Nc1ccc2c(c1)OCCO2)C(=O)COc1cc(C)ccc1Cl, the Potency was inconclusive [inhibitor, single point].
For CN(C(=O)c1cccc(NC(=O)Cc2ccc(NC(=O)C3CCN(C(=O)c4ccccc4)CC3)cc2)c1)C1CC1, the Potency was “inactive”.
With CSc1ccc(CCNC(=O)c2csc3c2CCCCC3)cc1 the Potency was inconclusive [inhibitor, single point].
For COc1ccc(-c2csc(NC(=O)c3c(C)noc3C)n2)cc1F, the Potency was inconclusive [inhibitor, single point].
For CC1(C(=O)NS(=O)(=O)C2CC2)CCN(C(=O)COCc2ccccc2)C1 (centres undefined), the Potency was “inactive”.
With COc1ccc(CNc2ncc(-c3ccc(F)cc3)n2C)c2ccccc12 the Potency was active: 23.1 µM.
In the case of Cc1cccc(OCCCC(=O)NNC(=O)c2ccccn2)c1, the Potency was active: 6.51 µM.
For O=C(c1noc2c1CCc1ccccc1-2)N1CCCc2ccccc21, the Potency was inconclusive [inhibitor, single point].
In the case of C=CCN(C(=O)CSC1=NC(=O)CN1C(C)=O)c1nc(C)c(-c2ccccc2)s1, the Potency was inconclusive [inhibitor, single point].
In the case of COc1ccc(O)c(-c2cc(-c3ccccc3Cl)[nH]n2)c1, the Potency was inconclusive [inhibitor, single point].
With CC(=NNC(=S)N1CC2CCC(CC2)C1)c1cnccn1 the Potency was “inactive”.
With Cc1ccc(-n2c(=O)c3oc4ccccc4c3n(Cc3cccc(F)c3)c2=O)cc1C the Potency was active: 25.9 µM.
In the case of CN(C)S(=O)(=O)c1ccc(N2CCCC2)c(C(=O)NCC2CCCO2)c1 (centres undefined), the Potency was “inactive”.
